± gives the standard deviation of the averaged measurements. The full ranking holds about 4,000 sequences; the median of “arbitrary fluorescence units” is about 830, and the highest 2% start at about 6,500. This part holds few or none of the hits.
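Note: Full-length recombinant human RUNX1 bound to double-stranded DNA microarray spots, detected with an Alexa488-labelled secondary antibody after the anti-RUNX1 primary, read as scanned spot fluorescence.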

The assay concerns the target RUNX1 (UniProt Q01196). The experiment in a line: RUNX1 binding intensity (PBM fluorescence), RUNX1 alone (arbitrary fluorescence units); higher = stronger binding. As to conditions: RUNX1 concentration 2 nM; ETS1 concentration 0 nM. How it is done: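 gcPBM on 36-bp genomic-derived probes (partner site mutated) containing one RUNX1 site and no ETS1 site. Recombinant human RUNX1 (2 nM) was incubated alone or with ETS1 (25 nM) and detected by anti-RUNX1 antibody fluorescence. Values are medians over 4 replicate spots (not normalised). The probes sit in constant array flanks that are not printed.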
UniProt Q01196, sequence (Q01196 whole entry): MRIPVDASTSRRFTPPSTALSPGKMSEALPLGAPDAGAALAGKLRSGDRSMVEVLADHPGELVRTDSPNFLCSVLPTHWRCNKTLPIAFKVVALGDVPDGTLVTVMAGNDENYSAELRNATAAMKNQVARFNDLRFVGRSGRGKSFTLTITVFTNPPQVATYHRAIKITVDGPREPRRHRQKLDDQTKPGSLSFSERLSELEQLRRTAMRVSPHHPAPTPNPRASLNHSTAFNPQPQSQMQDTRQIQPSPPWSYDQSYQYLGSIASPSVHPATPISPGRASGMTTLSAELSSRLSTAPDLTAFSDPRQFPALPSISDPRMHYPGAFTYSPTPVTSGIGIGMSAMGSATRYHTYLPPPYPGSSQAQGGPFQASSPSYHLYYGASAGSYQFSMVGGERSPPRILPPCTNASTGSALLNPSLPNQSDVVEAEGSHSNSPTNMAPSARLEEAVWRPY
GCGCAAAGCCGTAAGGAGGGGTTTGCGGCTGGGGAG had an RUNX1 binding intensity of 748.
Take ACACAGAAAGGACGCACGCTCCCGCCCCAACCACAT: the RUNX1 binding intensity turned out to be 955.
TGTCGGGCTGCGGGGGCGGGGAGGTGGCGGCTGAAG showed an RUNX1 binding intensity of 967.
With AAGGAACTGTGGTAAGAGAAGGCAGTGCTATCCACT, the RUNX1 binding intensity worked out at 766.
TGGGACTGTGGCCACCACCACCTCCTCTCTGCTCTG: the RUNX1 binding intensity worked out at 884.
CTACATGTCCCACAGGCGCCCGGGCGGTTTTCGAAC had an RUNX1 binding intensity of 828.
As to CTCCCGCCACCGCGCGCCCGCGCTCCGAAAAGGCGG, the RUNX1 binding intensity turned out to be 831.
As to CCAGCCGTAAGCCCCGCCCCCTAGAGGCACCGCGGA, the RUNX1 binding intensity is 882.
With TGATGTGGTTTTGAAAGTGGAAGAGGGCAGGCAGTG, the RUNX1 binding intensity amounted to 1990.
GAGCGCCCACCTCCTGTTTACCACCCAGCCTCTTCG had an RUNX1 binding intensity of 1030.
ACGGTTTGTGGTTCCTCCTTAGGAGGCCAGATATGG yielded an RUNX1 binding intensity of 1290.
Sequence TTACTGCCTGAGGGTGCACAGGCTGTGGTCGTCTAT displayed an RUNX1 binding intensity of 694.
In the case of CCGGGACCGCGGCTTGGGCTCACGGCCACTGCCGAC it was 703; in that of CCCAGCCGCATGTGCAGAGTGGGGACGAAGAGGAGG, 749; in that of TTCCAGCGGAGGTTGTCTCTTCGCCGCCGCCGCAGC, 740.
CTAAACCTGAAGCCGCCCCTCTGACCGCTCTAAAAC gave an RUNX1 binding intensity of 979.
The sequence GCCGCGGTGGCTGCTATTTCTGCCGCTTTCTGTTCC registered an RUNX1 binding intensity of 804.
Sequence GTTGCCTTTCTGCGGTGGAGGAGGAGGTGTTGGATT came in with an RUNX1 binding intensity of 1400.
The sequence TGCGTAGCCGCAGCCAACGCGCCTTTCGGGTAGCCA yielded an RUNX1 binding intensity of 842.
In the case of TGATAGTGGGTTTGGGGTGATGCAAACAGAAAGAAA, the RUNX1 binding intensity turned out to be 841.
GGCCGGCTTACGGGGCGGGTGGAAAGGAGCCACAAG gave an RUNX1 binding intensity of 727.
In the case of CGCCTCATTGCCTGTGCAACTGCGGTAAAAATAGGA it was 1420; in that of TTAACCACTGTTCTCTAAATACTGTACGTCCTTTAT, 1100; in that of ACTAGAAGCGAAAGTAGTTGTGGGCGCCTTTGCAAC, 705.
The sequence CCCGCCTCCGCGTTTTACTCGGTGCCCGCAGCGCCG showed an RUNX1 binding intensity of 991.
Next, CAGGGGGCCCCACATGCCGCTCTTGCTGCCCAGGTC: 798.
In the case of CTTGGCTTATTGTGGGAGCCACTTGCCTGGCTTTCA it was 742.
Sequence GCACTACATTGCCCAGCTTTCCTCGCGGTAAAGAGA gave an RUNX1 binding intensity of 883.
AGCTGCGGTGGGCTCCACCCAGTTTGAACTTGCTGG yielded an RUNX1 binding intensity of 1100.
In the case of AGTGTCCGCCGCCTCCTGGTTGCGGGTCAGCGCCCA it was 753; in that of CTAACTGTGGGTGTTGTTACACACGATGATTCTTAG, 733.
For the sequence CAGGCAGGGTGTTGACTCAGCTGCCAAGTGGTTTTG, the RUNX1 binding intensity worked out at 779.
On to TCTCTATGGTTGCCGTTGGGTGTGTGGTTTTTTTGT, for which the RUNX1 binding intensity was 930.
In the case of CCCACTGCCTGTCCCTGCATGCTGTGGGGCAGGCAG, the RUNX1 binding intensity came out at 713.
In the case of ACCCTACCTCCGTTGCTGTGTTGCGGAGGTGACCTA it was 790; in that of CTCTACCGCAGGCTGGCTAATCTTCGGCAACAAACA, 1340; in that of AGGCCTGGCCCCAGGACGTGGGCGGTTGCCGGGGCG, 681.
The sequence GGCCAAGGAGGCGGCCCCCTAAAACCGCTCCAGGGA yielded an RUNX1 binding intensity of 746 ± 71.
As to TAGAACGTCCTCAGACCACCGCCGCCGCAGTCTGCA, the RUNX1 binding intensity came to 818.
CCCTTTTCCTTACGGCCTGTGCGGCTTATAAGATCT registered an RUNX1 binding intensity of 1220.
Next, GGGGCTCCGCAGGCAGTAGGGCTCCCACAACTTTGC: 696; TTGGCCTCGCCGGGACCCCTTGCACCGCGGACACAG: 776.
Next, GGTCACTGCGGCCCAGAGGCCCGCTCTTCAGCTGAG: 756; CCTCCCGACCTGAAGCCCCGCCACAGAGCGGGTTGT: 988; AGAGTGTGGCCGCAGAACTCACCTCCTTGTTTACAT: 925.
On to ATAGACGCGTGGTTTTGTTTTTAAACATGCTGAGCA, for which the RUNX1 binding intensity stood at 774.
Sequence GAGTGGCTGTGGTCTCGGGCGGCTGGGGAGAAGAGA displayed an RUNX1 binding intensity of 863.
As for TCTGGGAGATGGAGTTCACAGCGCTGCGGGGCCGGA, the RUNX1 binding intensity was 674.
In turn, AATGCCGAATATTGGTTCTGGTAAGCCACAAAAAAG showed an RUNX1 binding intensity of 871.
Next, ACCCCACCTACCGCCACCTCATTCTGAGTCTGAGAG: 1300.
Sequence GGGGTGCTGGGAACTGGAGCGAGAGGTGGTTTCCAG yielded an RUNX1 binding intensity of 739.
Sequence TCCGAAAGTGGCACTGATGGGCGCCTGCGGCGGGGG gave an RUNX1 binding intensity of 720.
In the case of CTGGTAGAAAAGGCAGCAGGTTGTGGTGAGCATTTA, the RUNX1 binding intensity was 777.
As to CCCTTTTTCCCCGCAAACAGCTTGCTCTGCTAAGAA, the RUNX1 binding intensity came to 1480.
The sequence CACTACCACAAATTATGCAGTGGAATCTCCTACATT came in with an RUNX1 binding intensity of 1040 ± 100.
Next, AGGTGTACTTTACGGGTGCAGACCGCGAATGGATCG: 722.
Next, CTCTCTCCACCACAGTCACTTATCGCTTGCTGGAGG: 1070.
ATAATAACCACAAGAGATCTGATCTCCGTTGCTGGT returned an RUNX1 binding intensity of 3470.
CCTGGGACACCGCGAAAGTCGGGAGATGGTGCGTGT showed an RUNX1 binding intensity of 935.
CTCCTGCCCACAGAAGCTCACTGTTTACTGTCTAGC came in with an RUNX1 binding intensity of 965.
As to GCCACACCCCCTTCATGTTGTGTGTGGGGATTCATG, the RUNX1 binding intensity is 746.
As to GGAGCGACGGGAGCACCTGAAGCGGTCTTTCCCCGA, the RUNX1 binding intensity was determined as 688.
CGGGAGGGGCAGGGAGCGGACTGCGGTGGGGAAGGG returned an RUNX1 binding intensity of 970.
